Measurements as given in paper PMC11995724, “Antibiotic target discovery by integrated phenotypic and activity-based profiling of electrophilic fragments” (Cell chemical biology, 2025).
Out of some 3,200 compounds screened, about 110 (3.4%) showed an effect of 50% or more. Some of the results follow.

Test system: T1, V. cholerae SAD30
T1 construct: SAD30
Set-up: species or system S. aureus MSSA476 (TSB) or V. cholerae SAD30 (LB); 384-well bacterial growth screen at 25 uM, OD600 relative to DMSO control
Settings: 25 µM; inhibitor

SMILES	% of control remaining [%]
CC(Cl)C(=O)c1ccc(Cl)cc1 (stereo not shown) [10-O04, 2-chloro-1-(4-chlorophenyl)propan-1-one]	91.1748
CCn1c(-c2ccccc2)c(C(=O)CCl)c2ccccc21 [10-E12, 2-chloro-1-(1-ethyl-2-phenyl-1H-indol-3-yl)ethan-1-one]	97.5648
C=CC(=O)Nc1ccc(C(=O)N2CCC3(CC2)OCCCO3)cc1 [2-D16, N-(4-{1,5-dioxa-9-azaspiro[5.5]undecane-9-carbonyl}phenyl)prop-2-enamide]	88.6519
N#Cc1ccc(NC(=O)CCl)cc1Cl [4-N03, 2-chloro-N-(3-chloro-4-cyanophenyl)acetamide]	132.672
